Reference: the BET-seq Pho4 binding data (Le et al. 2018)
This is one part of the list. Values were computed here from the reads of four pooled replicates and scatter widely.

biological target: T1, Pho4 (S. cerevisiae) (UniProt P07270); assay: relative binding free energy (BET-seq); higher = weaker binding; conditions: reference: library average
T1 sequence: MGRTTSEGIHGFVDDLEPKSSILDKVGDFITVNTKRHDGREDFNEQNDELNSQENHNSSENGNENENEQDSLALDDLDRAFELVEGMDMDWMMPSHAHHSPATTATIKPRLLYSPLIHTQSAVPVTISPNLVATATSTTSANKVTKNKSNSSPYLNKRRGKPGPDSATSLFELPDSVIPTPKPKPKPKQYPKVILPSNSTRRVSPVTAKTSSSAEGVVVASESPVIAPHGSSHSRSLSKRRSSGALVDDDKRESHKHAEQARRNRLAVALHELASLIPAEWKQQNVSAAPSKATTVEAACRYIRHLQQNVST

| Sequence | relative binding free energy |
| --- | --- |
| GGCGGCACGTGGTGCA | -0.24 kcal/mol |
| AGAGGCACGTGTGTGT | -0.06 kcal/mol |
| ATTTTCACGTGAGCTT | 0.48 kcal/mol |
| ATCGTCACGTGGTAAG | 0.05 kcal/mol |
| CTAAACACGTGGGGGT | -0.11 kcal/mol |
| ATGGGCACGTGCAATA | -0.03 kcal/mol |
| TTGACCACGTGCGGGT | 0 kcal/mol |
| TGGAACACGTGCGTGG | -0.04 kcal/mol |
| GTTGTCACGTGGAGGT | 0.17 kcal/mol |
| TTTGGCACGTGTAGCC | 0.02 kcal/mol |
| TGTGTCACGTGAGTAG | 0.29 kcal/mol |
| GGGGACACGTGCGAGT | 0.12 kcal/mol |
| TTCTGCACGTGGTAGT | -0.19 kcal/mol |
| ATGGTCACGTGGGTAC | -0.09 kcal/mol |
| AAAGTCACGTGTAGTT | 0.24 kcal/mol |
| ATTGTCACGTGTAATG | 0.17 kcal/mol |
| TGTTTCACGTGGCACA | 0.25 kcal/mol |
| GATTGCACGTGTGTCA | 0.15 kcal/mol |
| AAGGGCACGTGGAAGG | 0.05 kcal/mol |
| TGGAGCACGTGGTAAA | 0.01 kcal/mol |
| GGGGTCACGTGAGGAC | 0.31 kcal/mol |
| TTGGGCACGTGATCGT | -0.13 kcal/mol |
| TAAGACACGTGTATAT | 0.06 kcal/mol |
| TAGGACACGTGGATTT | 0.1 kcal/mol |
| AGGGTCACGTGGGGTC | -0.07 kcal/mol |

| Sequence | relative binding free energy |
| --- | --- |
| AGTGGCACGTGTGAAT | 0.08 kcal/mol |
| GCTGGCACGTGGTTGG | -0.02 kcal/mol |
| TGGTTCACGTGATTTG | 0.38 kcal/mol |
| TTTGACACGTGATGGA | 0.08 kcal/mol |
| CGCGGCACGTGATGGG | 0.03 kcal/mol |
| TGGAGCACGTGAGAGC | 0.35 kcal/mol |
| ACTAGCACGTGGAGTG | -0.1 kcal/mol |
| GGTTGCACGTGATGAT | 0.18 kcal/mol |
| GGATTCACGTGAAGTG | 0.57 kcal/mol |
| TCAGTCACGTGGTGAG | 0.14 kcal/mol |
| GTTTCCACGTGGGAGT | 0.06 kcal/mol |
| TTAGCCACGTGTAGGT | -0.11 kcal/mol |
| CAGATCACGTGTAGTT | 0.19 kcal/mol |
| GGTATCACGTGGCGGT | 0.21 kcal/mol |
| ATGTACACGTGTTAGC | 0.03 kcal/mol |
| GGGTACACGTGCGGAA | 0.03 kcal/mol |
| TATGTCACGTGATGAC | 0.33 kcal/mol |
| ACGTACACGTGGTTGG | 0.03 kcal/mol |
| ATCTGCACGTGTAGGA | 0.03 kcal/mol |
| GGAGACACGTGAGTCG | 0.38 kcal/mol |
| CTAATCACGTGTGTGA | 0.06 kcal/mol |
| GGGTGCACGTGATAAT | 0.22 kcal/mol |
| GATGACACGTGATGGA | 0.27 kcal/mol |
| CATGACACGTGTTGTA | 0.03 kcal/mol |
| GGAGTCACGTGCTTAG | 0.18 kcal/mol |

| Sequence | relative binding free energy |
| --- | --- |
| TGGTGCACGTGGTGAG | -0.07 kcal/mol |
| GAGATCACGTGTATGT | 0.3 kcal/mol |
| GGTACCACGTGTTTTG | -0.07 kcal/mol |
| GTGGTCACGTGTTAAG | 0.15 kcal/mol |
| CGTGTCACGTGTAATG | 0.12 kcal/mol |
| TGTGTCACGTGGGTTG | -0.04 kcal/mol |
| ACCGTCACGTGGGTGG | -0.04 kcal/mol |
| TTGAGCACGTGGGAAA | -0.19 kcal/mol |
| AAGTGCACGTGAGGGA | 0.15 kcal/mol |
| TGCGGCACGTGGCGTG | -0.19 kcal/mol |
| ATGGGCACGTGTTCGA | -0.06 kcal/mol |
| GGTGTCACGTGTTGAT | 0.11 kcal/mol |
| TTAAACACGTGTGTTT | 0.06 kcal/mol |
| GTGTACACGTGACGGC | 0.4 kcal/mol |
| TGTGCCACGTGTAGAG | -0.1 kcal/mol |
| TCGTGCACGTGTGATT | 0.06 kcal/mol |
| ATTATCACGTGTTCGT | 0.13 kcal/mol |
| GTGTTCACGTGCTATA | 0.21 kcal/mol |
| CGGTACACGTGTAGGA | 0 kcal/mol |
| TGAGGCACGTGGTGCT | -0.15 kcal/mol |
| ATGGCCACGTGGATTG | -0.1 kcal/mol |
| GTTGGCACGTGGCTAG | -0.11 kcal/mol |
| GGTTGCACGTGTTGTG | 0.14 kcal/mol |
| TCTTTCACGTGGATGG | 0.17 kcal/mol |
| CTGGTCACGTGGCGTA | 0 kcal/mol |

| Sequence | relative binding free energy |
| --- | --- |
| AAGAGCACGTGGGAAG | -0.03 kcal/mol |
| TTGTTCACGTGGAATA | 0.27 kcal/mol |
| GGGGTCACGTGGGCTC | 0.02 kcal/mol |
| ATGTTCACGTGGACTT | 0.26 kcal/mol |
| ATGATCACGTGGGGGC | 0 kcal/mol |
| AGGGGCACGTGCTTTG | -0.3 kcal/mol |
| GCGGACACGTGGATGG | 0.15 kcal/mol |
| CTGGGCACGTGGGTAG | -0.17 kcal/mol |
| GCTTTCACGTGAGAGT | 0.42 kcal/mol |
| GGCTACACGTGGGGAA | 0.09 kcal/mol |
| AAAGTCACGTGATGTT | 0.28 kcal/mol |
| TGGCGCACGTGTTGCA | 0 kcal/mol |
| AACGCCACGTGGGGTT | -0.11 kcal/mol |
| TTTGTCACGTGAAATG | 0.34 kcal/mol |
| TAGTGCACGTGTCTGG | -0.13 kcal/mol |
| TCGGACACGTGGTATT | -0.02 kcal/mol |
| TACGACACGTGTATGG | 0.05 kcal/mol |
| TAGTTCACGTGTATAG | 0.14 kcal/mol |
| TTGGCCACGTGGGCTA | -0.21 kcal/mol |
| AGGTACACGTGCGAGT | 0.06 kcal/mol |
| GGGGTCACGTGAGCGG | 0.3 kcal/mol |
| GGGGGCACGTGGAAAC | 0.07 kcal/mol |
| TGTGACACGTGTTTCA | 0.04 kcal/mol |
| CTGTACACGTGATTTG | 0.31 kcal/mol |
| GGTCTCACGTGGCGTT | 0.19 kcal/mol |

| Sequence | relative binding free energy |
| --- | --- |
| AATGGCACGTGTGGAC | -0.04 kcal/mol |
| GTTATCACGTGTTCGT | 0.11 kcal/mol |
| TGGGACACGTGGTTGT | 0.06 kcal/mol |
| TAGCTCACGTGTAGTG | 0.3 kcal/mol |
| TAACTCACGTGTGTGG | 0.22 kcal/mol |
| GTACTCACGTGTGGTG | 0.21 kcal/mol |
| CTGCTCACGTGGGTGC | 0.22 kcal/mol |
| AATTTCACGTGTGGCA | 0.19 kcal/mol |
| AATTGCACGTGAGATA | 0.25 kcal/mol |
| GGATGCACGTGCTGTG | -0.06 kcal/mol |
| CTTGTCACGTGAAGTA | 0.2 kcal/mol |
| TTGTTCACGTGAACTA | 0.35 kcal/mol |
| CTATTCACGTGTCGGG | 0.3 kcal/mol |
| CTAAGCACGTGTCGGG | 0.02 kcal/mol |
| CGGGTCACGTGCATGT | -0.05 kcal/mol |
| AATTGCACGTGATGCG | 0.16 kcal/mol |
| GGTTACACGTGTGGCA | 0.25 kcal/mol |
| TCGTACACGTGGAGAG | 0.23 kcal/mol |
| GATTGCACGTGGTATG | -0.07 kcal/mol |
| AACGTCACGTGGTGTT | -0.05 kcal/mol |
| CTTGTCACGTGATTAG | 0.25 kcal/mol |
| CGGGGCACGTGGGACT | -0.14 kcal/mol |
| ATCGACACGTGTATGG | 0.06 kcal/mol |
| CGGAACACGTGAAGGG | 0.28 kcal/mol |
| TGTGACACGTGATTTG | 0.14 kcal/mol |

| Sequence | relative binding free energy |
| --- | --- |
| ATGGGCACGTGATGGC | 0.05 kcal/mol |
| GTTAACACGTGCGGTT | 0.14 kcal/mol |
| ATTGTCACGTGACTGG | 0.19 kcal/mol |
| ATAATCACGTGGTTTA | -0.06 kcal/mol |
| AATTGCACGTGTTTCT | -0.01 kcal/mol |
| GTGAGCACGTGTGGTA | -0.05 kcal/mol |
| ATTGGCACGTGGGGTT | -0.15 kcal/mol |
| GCGTTCACGTGTTTGT | 0.34 kcal/mol |
| GGTGACACGTGTTTGA | 0.11 kcal/mol |
| TGATGCACGTGCGTGC | -0.09 kcal/mol |
| GATGGCACGTGAGTAT | 0.15 kcal/mol |
| GGAGCCACGTGGGAGG | -0.08 kcal/mol |
| GAGGGCACGTGGTGTG | -0.06 kcal/mol |
| GTAGGCACGTGTGTTC | 0.04 kcal/mol |
| TCGTTCACGTGAGGTG | 0.46 kcal/mol |
| AGATGCACGTGGGCGA | -0.23 kcal/mol |
| GGGTACACGTGAGCTG | 0.24 kcal/mol |
| TATTTCACGTGACAGT | 0.21 kcal/mol |
| AATGGCACGTGGAGGT | -0.05 kcal/mol |
| TGGGGCACGTGCAAGT | -0.01 kcal/mol |
| GGTTACACGTGGCGCT | 0.08 kcal/mol |
